# Reference: the BET-seq Pho4 binding data (Le et al. 2018)
# The list shows a part of the results. These are noisy estimates, calculated here from bound and input reads.
# Biological target: T1, Pho4 (S. cerevisiae) (UniProt P07270)
# T1 sequence: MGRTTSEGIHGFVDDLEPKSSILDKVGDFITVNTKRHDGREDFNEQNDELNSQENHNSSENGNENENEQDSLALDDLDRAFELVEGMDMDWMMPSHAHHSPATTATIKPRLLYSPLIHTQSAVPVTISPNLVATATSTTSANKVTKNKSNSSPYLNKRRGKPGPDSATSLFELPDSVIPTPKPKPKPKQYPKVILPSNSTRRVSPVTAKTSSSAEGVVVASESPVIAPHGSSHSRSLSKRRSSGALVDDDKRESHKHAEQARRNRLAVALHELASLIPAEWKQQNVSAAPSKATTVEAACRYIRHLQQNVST
# Test: relative binding free energy (BET-seq); higher = weaker binding
# Conditions: reference: library average
row,Sequence,relative binding free energy
1,ACGTGCACGTGGGCTT,-0.23 kcal/mol
2,TACTGCACGTGGTAGA,0.14 kcal/mol
3,ATTCACACGTGAGGGT,0.1 kcal/mol
4,TTGTTCACGTGACGCG,0.37 kcal/mol
5,GGGAGCACGTGTTCAT,-0.11 kcal/mol
6,CGGTGCACGTGTGAAT,0.09 kcal/mol
7,TGCTTCACGTGTATAA,0.23 kcal/mol
8,TTTGGCACGTGCGAGG,-0.1 kcal/mol
9,TTGCGCACGTGATAGT,0.02 kcal/mol
10,TGGGTCACGTGCAAGC,0.24 kcal/mol
11,TAGTGCACGTGCTGTA,-0.1 kcal/mol
12,CTAATCACGTGTGATG,0.15 kcal/mol
13,CGGGTCACGTGGATTA,0.25 kcal/mol
14,ATGGGCACGTGTTGGT,-0.03 kcal/mol
15,TTTAGCACGTGATGGC,0.14 kcal/mol
16,CTTATCACGTGTGGTG,0.23 kcal/mol
17,CAGGGCACGTGTATGT,-0.05 kcal/mol
18,AGGGGCACGTGCCGGT,-0.36 kcal/mol
19,CTGTGCACGTGGAGGT,-0.01 kcal/mol
20,GTAAACACGTGGGGGA,-0.13 kcal/mol
21,TGCAGCACGTGTTGGC,-0.05 kcal/mol
22,GGTGTCACGTGAGTCA,0.28 kcal/mol
23,TGATTCACGTGCTTAT,0.16 kcal/mol
24,TAGTACACGTGATGGC,0.2 kcal/mol
25,AGAGGCACGTGGTGCG,-0.2 kcal/mol

row,Sequence,relative binding free energy
1,TATTGCACGTGGACGG,-0.12 kcal/mol
2,GACTCCACGTGGGGGG,-0.15 kcal/mol
3,GCTGTCACGTGCGTGG,0.03 kcal/mol
4,TTGACCACGTGGGGCG,-0.17 kcal/mol
5,ATATTCACGTGGGTAC,0.14 kcal/mol
6,GTTTACACGTGGGGGC,0.13 kcal/mol
7,ATGGTCACGTGCCTGT,-0.07 kcal/mol
8,AAAGACACGTGGGGCT,-0.06 kcal/mol
9,AGTAGCACGTGGGGAA,-0.09 kcal/mol
10,TTGTTCACGTGTATGT,0.34 kcal/mol
11,CGGTGCACGTGTAAGG,0 kcal/mol
12,TGTCACACGTGCGTGT,0.01 kcal/mol
13,GATTTCACGTGACTTG,0.29 kcal/mol
14,GGGCTCACGTGTAGGA,0.13 kcal/mol
15,ATCGGCACGTGTGTTG,-0.03 kcal/mol
16,TGAATCACGTGAATTG,0.32 kcal/mol
17,TGTGGCACGTGGAGGC,-0.06 kcal/mol
18,AATGGCACGTGGGGAG,-0.21 kcal/mol
19,GGGGGCACGTGGACGG,-0.14 kcal/mol
20,GGGAGCACGTGTCGGG,-0.11 kcal/mol
21,TGGATCACGTGGATTA,0.09 kcal/mol
22,AGTGGCACGTGTGCGT,-0.15 kcal/mol
23,TTGACCACGTGGTGAT,-0.2 kcal/mol
24,GTAAGCACGTGAGTTC,0.23 kcal/mol
25,AAATTCACGTGAGCGG,0.5 kcal/mol

row,Sequence,relative binding free energy
1,ATATGCACGTGCTGTT,0.01 kcal/mol
2,TTTTTCACGTGTAATT,0.33 kcal/mol
3,CTATACACGTGGGGGG,-0.19 kcal/mol
4,CGTAGCACGTGTGTAA,-0.07 kcal/mol
5,GGGAACACGTGTTGAG,0.04 kcal/mol
6,CTTGTCACGTGATGGT,0.17 kcal/mol
7,TAGGACACGTGAACGG,0.38 kcal/mol
8,TTAATCACGTGGGCTA,0.06 kcal/mol
9,TAAGGCACGTGTTAAA,-0.07 kcal/mol
10,TTGTTCACGTGGCGTT,0.13 kcal/mol
11,AGAAGCACGTGGTCGT,-0.12 kcal/mol
12,GGTGCCACGTGTGTAT,-0.1 kcal/mol
13,ATCTTCACGTGGTGTT,0.25 kcal/mol
14,CAAATCACGTGTGGTT,0.26 kcal/mol
15,AGTGGCACGTGCAGGG,-0.15 kcal/mol
16,ATTCGCACGTGGTCGT,-0.11 kcal/mol
17,ACATGCACGTGTGTTG,-0.23 kcal/mol
18,GGGCCCACGTGGTGGG,-0.13 kcal/mol
19,AGGGACACGTGAATGT,0.32 kcal/mol
20,ACTGTCACGTGCGGGT,0.14 kcal/mol
21,TGCGTCACGTGAGTCT,0.25 kcal/mol
22,ATCTGCACGTGAAGTT,0.22 kcal/mol
23,GTTTTCACGTGGAGGT,0.32 kcal/mol
24,AATAACACGTGTGTAG,0.12 kcal/mol
25,ATCTACACGTGTAGGT,0.24 kcal/mol

row,Sequence,relative binding free energy
1,GGGCTCACGTGGGGAT,0.23 kcal/mol
2,GTAAGCACGTGGATAG,-0.08 kcal/mol
3,ACAGTCACGTGGTGAG,-0.05 kcal/mol
4,CATATCACGTGTGATT,0.24 kcal/mol
5,CGGGGCACGTGCGGAG,-0.28 kcal/mol
6,GGTGTCACGTGTGTGC,0.26 kcal/mol
7,TTGTCCACGTGTACTT,0.09 kcal/mol
8,ATTGTCACGTGGTCCG,0.02 kcal/mol
9,TGATACACGTGAGGGG,0.28 kcal/mol
10,GGGGGCACGTGACAGG,0.08 kcal/mol
11,GTGTGCACGTGTAGCC,0.23 kcal/mol
12,CTCGTCACGTGCGGGG,-0.1 kcal/mol
13,GACAGCACGTGGGGTG,-0.14 kcal/mol
14,ATTGTCACGTGTAGCG,0.19 kcal/mol
15,TATTGCACGTGTGTTT,0.13 kcal/mol
16,TTAGCCACGTGGGGGG,-0.25 kcal/mol
17,GTGTGCACGTGAACGT,0.21 kcal/mol
18,ATGCTCACGTGATGTT,0.22 kcal/mol
19,ATATGCACGTGCCGTG,0.01 kcal/mol
20,TTGATCACGTGGGACG,0.02 kcal/mol
21,AGTGCCACGTGGGGGC,-0.42 kcal/mol
22,GGGGTCACGTGTGGGA,0.17 kcal/mol
23,AGGGGCACGTGAAAGG,0.04 kcal/mol
24,TATTACACGTGCGGTT,0.15 kcal/mol
25,ATGATCACGTGTGTTA,0.11 kcal/mol

row,Sequence,relative binding free energy
1,TCGTTCACGTGGTGCT,0.14 kcal/mol
2,GCGAGCACGTGATTGT,0.22 kcal/mol
3,TAGTACACGTGAGTAT,0.37 kcal/mol
4,TATTGCACGTGGGTCC,-0.02 kcal/mol
5,TTCACCACGTGGGGTG,-0.25 kcal/mol
6,TTTAACACGTGGATTG,-0.02 kcal/mol
7,CTTTGCACGTGAGTTG,0.27 kcal/mol
8,AGCGTCACGTGGGGGA,-0.09 kcal/mol
9,TGAGGCACGTGTCTGT,-0.16 kcal/mol
10,GTTGGCACGTGGCTGG,-0.13 kcal/mol
11,TGGAGCACGTGGCCTG,-0.16 kcal/mol
12,TCCTGCACGTGTTTGG,0.12 kcal/mol
13,TCGGTCACGTGGTAGA,-0.05 kcal/mol
14,TGTGGCACGTGCCTGG,-0.13 kcal/mol
15,GACGTCACGTGGGGTA,-0.05 kcal/mol
16,TGGGTCACGTGGCTCA,0.04 kcal/mol
17,CGGTTCACGTGGATTG,0.19 kcal/mol
18,AAAAGCACGTGGTAGG,-0.11 kcal/mol
19,TGTGGCACGTGTTCCG,-0.14 kcal/mol
20,AAAGGCACGTGATTGT,0.08 kcal/mol
21,TTTTTCACGTGAGACG,0.34 kcal/mol
22,CTATGCACGTGGGGCA,-0.15 kcal/mol
23,AGTGGCACGTGCGGGT,-0.22 kcal/mol
24,GTGGGCACGTGTGCTA,-0.04 kcal/mol
25,CTGATCACGTGTCGGT,0.2 kcal/mol

row,Sequence,relative binding free energy
1,TTTTCCACGTGGTAAG,0.14 kcal/mol
2,CGTAGCACGTGTGGTC,-0.03 kcal/mol
3,TCCGACACGTGGGGGG,-0.14 kcal/mol
4,AATCGCACGTGGTTGG,-0.09 kcal/mol
5,GAAAGCACGTGAGGGA,0.3 kcal/mol
6,TGAGTCACGTGGTAGA,0.03 kcal/mol
7,GTAATCACGTGGGATG,0.09 kcal/mol
8,CTGGACACGTGGTCGG,-0.08 kcal/mol
9,TGTTCCACGTGGGGGG,-0.06 kcal/mol
10,TTTTACACGTGTCGGC,0.2 kcal/mol
11,ATGTCCACGTGGTTGT,-0.05 kcal/mol
12,GGTGGCACGTGCTTCG,-0.18 kcal/mol
13,TATATCACGTGAGGGA,0.19 kcal/mol
14,AGACGCACGTGTGGGG,0.08 kcal/mol
15,GTATGCACGTGTGGAT,0.08 kcal/mol
16,GAGTGCACGTGTAATT,-0.06 kcal/mol
17,AAGAGCACGTGTAGTA,-0.13 kcal/mol
18,GAGAGCACGTGGGCGG,-0.19 kcal/mol
19,GGGGGCACGTGATTAT,0.05 kcal/mol
20,TAGAGCACGTGAGAGG,0.17 kcal/mol
21,CGTTTCACGTGGCTTA,0.17 kcal/mol
